Results are given in words; binding and its absence hold for the method and conditions named.
Biological target: T1, human septin 6 (human), Q14141
T1 chain: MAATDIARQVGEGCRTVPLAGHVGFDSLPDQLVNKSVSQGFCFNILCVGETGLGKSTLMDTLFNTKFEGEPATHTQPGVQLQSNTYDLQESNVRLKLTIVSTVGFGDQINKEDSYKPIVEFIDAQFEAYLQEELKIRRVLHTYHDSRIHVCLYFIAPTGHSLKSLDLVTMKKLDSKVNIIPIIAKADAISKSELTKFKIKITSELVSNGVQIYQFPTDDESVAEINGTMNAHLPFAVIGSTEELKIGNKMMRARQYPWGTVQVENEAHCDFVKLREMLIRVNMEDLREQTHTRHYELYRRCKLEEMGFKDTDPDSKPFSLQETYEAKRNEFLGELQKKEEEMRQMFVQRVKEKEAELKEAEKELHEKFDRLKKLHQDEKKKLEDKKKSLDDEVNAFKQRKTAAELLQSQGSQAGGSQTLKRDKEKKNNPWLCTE
Assay: two-hybrid; LexA-septin bait (modified pBTM116) in yeast L40 screened against human fetal brain and human leukocyte cDNA libraries (pACT2); minimal medium without Trp, Leu, His, with 5 mM 3-AT; every clone confirmed one-to-one with its bait by beta-galactosidase filter assay, empty bait vector as control
Conditions: remark: other sources report otherwise

B1: human septin 10, Q9P0V9 1-454 (protein)
chain: MASSEVARHLLFQSHMATKTTCMSSQGSDDEQIKRENIRSLTMSGHVGFESLPDQLVNRSIQQGFCFNILCVGETGIGKSTLIDTLFNTNFEDYESSHFCPNVKLKAQTYELQESNVQLKLTIVNTVGFGDQINKEESYQPIVDYIDAQFEAYLQEELKIKRSLFTYHDSRIHVCLYFISPTGHSLKTLDLLTMKNLDSKVNIIPVIAKADTVSKTELQKFKIKLMSELVSNGVQIYQFPTDDDTIAKVNAAMNGQLPFAVVGSMDEVKVGNKMVKARQYPWGVVQVENENHCDFVKLREMLICTNMEDLREQTHTRHYELYRRCKLEEMGFTDVGPENKPVSVQETYEAKRHEFHGERQRKEEEMKQMFVQRVKEKEAILKEAERELQAKFEHLKRLHQEERMKLEEKRRLLEEEIIAFSKKKATSEIFHSQSFLATGSNLRKDKDRKNSNFL
For B1, the binding was “no binding”.
